Measured values reported in the supplement of paper PMC8728848.
The other results are listed elsewhere or left out.

Key:
Assay in all cases: glycan array binding signal (z-score within array); higher = stronger binding
Settings in all cases: glycan notation: IUPAC condensed, linker removed
[1] = target: Neu5Ac(a2-6)GlcNAc(b1-4)GlcNAc(b1-4)GlcNAc
Outline: (§1)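 Negative Z-scores can be read as non-binding. The Z-score is calculated within each array and then averaged across arrays of one protein sequence at different concentrations or buffers and across linkers. Arrays, 3228 in all, were curated from the Consortium for Functional Glycomics database and kept only where the protein sequence was available.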

[2] = target: Neu5Ac(a2-8)Neu5Ac
Outline: as §1

[3] = target: Neu5Ac(a2-8)Neu5Ac(a2-3)Gal(b1-3)GalNAc(b1-4)[Neu5Ac(a2-3)]Gal(b1-4)Glc
Outline: as §1

[4] = target: Neu5Ac(a2-8)Neu5Ac(a2-3)Gal(b1-3)GalNAc(b1-4)[Neu5Ac(a2-8)Neu5Ac(a2-3)]Gal(b1-4)Glc
Outline: as §1

[5] = target: Neu5Ac(a2-8)Neu5Ac(a2-3)Gal(b1-4)Glc
Outline: as §1

[6] = target: Neu5Ac(a2-8)Neu5Ac(a2-3)Gal(b1-4)GlcNAc
Outline: as §1

[7] = target: Neu5Ac(a2-8)Neu5Ac(a2-3)[Gal(b1-3)GalNAc(b1-4)]Gal(b1-4)Glc
Outline: as §1

[8] = target: Neu5Ac(a2-8)Neu5Ac(a2-3)[GalNAc(b1-4)]Gal(b1-4)Glc
Outline: as §1

[9] = target: Neu5Ac(a2-8)Neu5Ac(a2-8)Neu5Ac
Outline: as §1

[10] = target: Neu5Ac(a2-8)Neu5Ac(a2-8)Neu5Ac(a2-3)Gal(b1-4)Glc
Outline: as §1

[11] = target: Neu5Ac(a2-8)Neu5Ac(a2-8)Neu5Ac(a2-3)[Gal(b1-3)GalNAc(b1-4)]Gal(b1-4)Glc
Outline: as §1

[12] = target: Neu5Ac(a2-8)Neu5Ac(a2-8)Neu5Ac(a2-3)[GalNAc(b1-4)]Gal(b1-4)Glc
Outline: as §1

[13] = target: Neu5Ac(a2-8)Neu5Ac(a2-8)Neu5Ac(a2-8)Neu5Ac(a2-3)[GalNAc(b1-4)]Gal(b1-4)Glc
Outline: as §1

[14] = target: Neu5Ac(a2-8)Neu5Gc(a2-3)Gal(b1-4)GlcNAc
Outline: as §1

[15] = target: Neu5Ac(b2-6)Gal(b1-4)GlcNAc
Outline: as §1

[16] = target: Neu5Ac(b2-6)GalNAc
Outline: as §1

[17] = target: Neu5Ac9Ac(a2-3)Gal(b1-3)GlcNAc
Outline: as §1

[18] = target: Neu5Ac9Ac(a2-3)Gal(b1-4)GlcNAc
Outline: as §1

[19] = target: Neu5Ac9Ac(a2-6)Gal(b1-4)GlcNAc
Outline: as §1

[20] = target: Neu5Gc(a2-3)Gal(b1-3)GlcNAc
Outline: as §1

[21] = target: Neu5Gc(a2-3)Gal(b1-3)[Fuc(a1-4)]GlcNAc
Outline: as §1

[22] = target: Neu5Gc(a2-3)Gal(b1-4)Glc
Outline: as §1

[23] = target: Neu5Gc(a2-3)Gal(b1-4)GlcNAc
Outline: as §1

[24] = target: Neu5Gc(a2-3)Gal(b1-4)GlcNAc(b1-3)Gal(b1-4)GlcNAc(b1-2)Man(a1-3)[Neu5Gc(a2-3)Gal(b1-4)GlcNAc(b1-3)Gal(b1-4)GlcNAc(b1-2)Man(a1-6)]Man(b1-4)GlcNAc(b1-4)GlcNAc
Outline: as §1

[25] = target: Neu5Gc(a2-3)Gal(b1-4)[Fuc(a1-3)]GlcNAc
Outline: as §1

[26] = target: Neu5Gc(a2-6)Gal(b1-4)GlcNAc
Outline: as §1

[27] = target: Neu5Gc(a2-6)GalNAc
Outline: as §1

[28] = target: Neu5Gc(a2-8)Neu5Ac(a2-3)Gal(b1-4)GlcNAc
Outline: as §1

[29] = target: Neu5Gc(a2-8)Neu5Gc(a2-3)Gal(b1-4)GlcNAc
Outline: as §1

[30] = target: Neu5Gc(a2-8)Neu5Gc(a2-3)Gal(b1-4)GlcNAc(b1-3)Gal(b1-4)GlcNAc
Outline: as §1

[31] = target: Neu5Gc(a2-8)Neu5Gc(a2-6)Gal(b1-4)GlcNAc
Outline: as §1

[32] = target: Neu5Gc(b2-6)Gal(b1-4)GlcNAc
Outline: as §1

B1: Arath Fbox (Arabidopsis thaliana), NP_178341.1 (protein)
chain: EFTWGRKRRVKSESSPFDSFPEDCISYIISFTNPRDACVAATVSKTFESTVKSDIIWEKFLPADYESLIPPSRVFSSKKELYFSLCNDPVLFDDDKKSVWLEKASGKRCLMLSAMNLSIIWGDNPQYWQWIPIPESRFEKVAKLRDVCWFEIRGRTNTRVLSPRTRYSAYIVFKGVDKCYGFQNVAIEAAVGVVGQEPSRRLICFSEAIRRGRRNVVKPKQREDGWMEIELGEFFNDGGIMDNDEIEMSALETKQLNRKCGLIIQGIEIRPAKILAAAAASFLEQKLISEEDLNSAVDHHHHHH
glycan array binding signal (z-score) [1]: -0.754
glycan array binding signal (z-score) [2]: -0.615
glycan array binding signal (z-score) [3]: -0.685
glycan array binding signal (z-score) [4]: 0.378
glycan array binding signal (z-score) [5]: -0.582
glycan array binding signal (z-score) [6]: -0.583
glycan array binding signal (z-score) [7]: 0.298
glycan array binding signal (z-score) [8]: -0.467
glycan array binding signal (z-score) [9]: -0.611
glycan array binding signal (z-score) [10]: -0.675
glycan array binding signal (z-score) [11]: -0.683
glycan array binding signal (z-score) [12]: -0.245
glycan array binding signal (z-score) [13]: 0.574
glycan array binding signal (z-score) [14]: -0.23
glycan array binding signal (z-score) [15]: 0.732
glycan array binding signal (z-score) [16]: -0.377
glycan array binding signal (z-score) [17]: 0.991
glycan array binding signal (z-score) [18]: -0.721
glycan array binding signal (z-score) [19]: -0.681
glycan array binding signal (z-score) [20]: -0.022
glycan array binding signal (z-score) [21]: -0.678
glycan array binding signal (z-score) [22]: 0.181
glycan array binding signal (z-score) [23]: -0.647
glycan array binding signal (z-score) [24]: 1.17
glycan array binding signal (z-score) [25]: 0.522
glycan array binding signal (z-score) [26]: 2.49
glycan array binding signal (z-score) [27]: 1.35
glycan array binding signal (z-score) [28]: -0.42
glycan array binding signal (z-score) [29]: -0.063
glycan array binding signal (z-score) [30]: -0.651
glycan array binding signal (z-score) [31]: -0.528
glycan array binding signal (z-score) [32]: 2.42
